From PubChem BioAssay AID2675 (National Center for Advancing Translational Sciences (NCATS), 2010)
The whole screen tested about 280,000 compounds, of which about 100 (0.036%) were called active. The shares of active, inactive and inconclusive entries below differ from those in the screen. Calls follow the shape of the dose curve; as a rule, active = well fitted inhibition curve with a large enough effect in the signal ratio, with a control signal flat (not every such curve was filed as active); inconclusive = small, poorly fitted or top-dose-only effect, or effect the other way, or a change in a side signal; inactive = no such curve, though single readings can be large or run the other way; the % refers to the signal ratio. Where the call is inconclusive, the potency comes from a doubtful curve fit. “Side channel” marks fits to a control or component signal instead of the main read-out.
Potency is read from the fitted curve at half-maximal effect; tags tell the direction and shape of the fitted curve or compound fluorescence and quenching.

The molecules below were run against Muscleblind-like protein 1 (Homo sapiens) (UniProt Q9NR56) (assay: qHTS Assay for Inhibitors of MBNL1-poly(CUG) RNA binding). Conditions: TR-FRET MBNL1-His/biotin-(CUG)12 binding, 665/545 ratio; series mostly up to 57.5 µM.
Sequence of UniProt Q9NR56 (Q9NR56 whole entry, looked up): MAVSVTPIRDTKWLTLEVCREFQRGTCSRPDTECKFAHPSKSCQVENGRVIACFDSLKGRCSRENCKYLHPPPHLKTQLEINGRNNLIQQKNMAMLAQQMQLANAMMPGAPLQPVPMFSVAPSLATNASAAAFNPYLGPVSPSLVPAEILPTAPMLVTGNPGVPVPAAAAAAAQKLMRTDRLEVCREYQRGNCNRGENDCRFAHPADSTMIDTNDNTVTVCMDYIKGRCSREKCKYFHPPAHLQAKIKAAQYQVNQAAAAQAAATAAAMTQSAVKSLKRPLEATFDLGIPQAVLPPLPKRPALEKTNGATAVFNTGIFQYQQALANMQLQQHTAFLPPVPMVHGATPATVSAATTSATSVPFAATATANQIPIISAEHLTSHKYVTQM
Method in brief: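 Compound titration spanned 92 nM–58 uM against the MBNL1-His/biotin-(CUG)12 complex. After 60 min at room temperature with 5 nM streptavidin-XL665 and 0.055 ng/ul terbium anti-His, ratiometric 665/545 nm emission (Ex 340 nm) normalized to controls.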
`CCN1C(=O)/C(=C2/C=Cc3cc(C)ccc3N2CC)N(C)C1=S` was tested, and the Potency was inconclusive: 1.12 µM [quencher, single point].
`O=C(O)CSc1c2ccccc2cc2ccccc12` was tested, and the Potency was inconclusive: 15.8 µM [quencher, side channel, partial curve].
In the case of `N#CCCN1CCN(C2=NC(=O)/C(=C\c3cccs3)S2)CC1`, the Potency is reported as inconclusive: 11.2 µM [quencher, partial curve].
In the case of `Cc1ccc2c(c1)/C(=C/c1ccco1)C(=O)N2`, the Potency is reported as inconclusive: 28.2 µM [quencher, side channel, single point].
With `CC(=O)Nc1sc2c(c1-c1nc3ccccc3s1)CCN(C(C)C)C2` the Potency was inconclusive: 12.6 µM [quencher, side channel, partial curve].
For `CCOc1ccccc1OCCCC(=O)Nc1nc2ccccc2[nH]1`, the Potency was “inactive”.
With `COc1ccc(OC)c(-n2c(-c3cc(-c4ccco4)[nH]n3)n[nH]c2=S)c1` the Potency was inconclusive: 6.31 µM [inhibitor, single point].
With `Cc1c(NS(=O)(=O)c2ccc3c(c2)OCCO3)cccc1-c1nc2cccnc2s1` the Potency was inconclusive: 12.6 µM [fluorescent, side channel, partial curve, poor fit].
With `CCOC(=O)C1C(=O)C=C(c2ccc(OC)cc2)CC1c1ccco1` (stereo not given) the Potency was inconclusive: 35.5 µM [quencher, side channel, single point].
`Cc1cnc(C)c(N2CCN(Cc3nc(-c4ccccc4)no3)CC2)n1` was tested, and the Potency was “inactive”.
For `CCOC(=O)C1Nc2ccc(C(=O)O)cc2C2C=CCC12` (stereo not given), the Potency was inconclusive: 22.4 µM [quencher, side channel, partial curve].
`O=[N+]([O-])c1cc(/C=N/N/C(=N/c2ccccn2)c2ccccn2)ccc1O` was tested, and the Potency was inconclusive: 35.5 µM [quencher, side channel, partial curve].
`O=C(c1cccc([N+](=O)[O-])c1)N1CCCC(C(=O)N2CCCCC2)C1` (stereo not given) was tested, and the Potency was inconclusive: 20 µM [quencher, side channel, partial curve].
In the case of `O=C(Nc1ccccc1[N+](=O)[O-])C1COc2ccccc2O1` (stereo not given), the Potency is reported as inconclusive: 15.8 µM [quencher, partial curve].
For `O=c1c2c(nc3cc(-c4ccc(F)cc4)[nH]n13)CCC2`, the Potency was inconclusive: 2 µM [fluorescent, side channel, full curve, poor fit].
With `COc1cc(C(=O)Nc2cccc(-c3nc4ccccc4o3)c2C)cc(OC)c1OC` the Potency was “inactive”.
In the case of `Cc1cc(-c2csc(N)n2)c(C)n1C`, the Potency is reported as inconclusive: 28.2 µM [quencher, side channel, partial curve].
`NC(=O)CC(NC(=O)c1ccccc1)c1ccc(NC2CCC2)c([N+](=O)[O-])c1` (stereo not given) was tested, and the Potency was inconclusive: 14.1 µM [quencher, side channel, partial curve].
`CCc1n[nH]c(=S)n1/N=C/c1ccccn1` was tested, and the Potency was “inactive”.
With `O=C(N/N=C/c1cc(Br)cs1)C(O)c1ccccc1` (stereo not given) the Potency was inconclusive: 15.8 µM [quencher, side channel, partial curve].
In the case of `COc1ccc(OC)c(C2=NS(=O)(=O)N(C)C(C(=O)N3CCC4(CC3)OCCO4)=C2)c1`, the Potency is reported as inconclusive: 14.1 µM [quencher, side channel, partial curve].
`CC(C)(C)C(=O)N1CCN(c2ccc([N+](=O)[O-])c(NCC3CCCO3)c2)CC1` (stereo not given) was tested, and the Potency was inconclusive: 11.2 µM [quencher, partial curve].
In the case of `CC1CN(Cc2cc(=O)oc3cc(O)c(Cl)cc23)CC(C)O1` (stereo not given), the Potency is reported as inconclusive: 10 µM [quencher, side channel, partial curve].
With `Cc1ccccc1-c1nc(CN2CCC(C(=O)O)CC2)c(C)o1` the Potency was “inactive”.
With `Cc1ccccc1Cn1c(C)nc2ccccc21` the Potency was “inactive”.
With `COc1cc([N+](=O)[O-])cc(/C=N/NC(=O)c2cc(-c3ccccc3)nc3ccccc23)c1O` the Potency was “inactive”.
In the case of `CCN(CC)S(=O)(=O)c1cccc(C(=O)Nc2cc(C)on2)c1`, the Potency is reported as “inactive”.
With `CC(NC(=O)COc1cccnc1[N+](=O)[O-])c1ccc(Cl)cc1Cl` (stereo not given) the Potency was inconclusive: 20 µM [quencher, side channel, partial curve].
In the case of `O=C1CCC(=O)N1c1nc2nc(-c3ccccc3)cc(-c3ccccc3)n2n1`, the Potency is reported as inconclusive: 20 µM [quencher, side channel, partial curve].
For `Cc1nc2ccccc2c(=O)n1Cc1ccc([N+](=O)[O-])cc1`, the Potency was inconclusive: 12.6 µM [quencher, side channel, partial curve].
`Cc1nn(-c2nnc(C)c(=O)[nH]2)c(C)c1SCC(=O)Nc1ccc(F)cc1` was tested, and the Potency was “inactive”.
For `CCOC(=O)/C(C#N)=C\c1ccco1`, the Potency was inconclusive: 14.1 µM [quencher, partial curve].
With `COc1ccc(/C=C/c2c([N+](=O)[O-])c(=O)n(C)c(=O)n2C)cc1O` the Potency was inconclusive: 14.1 µM [quencher, side channel, partial curve].
In the case of `CN(C)c1ccnc2sc(C(=O)c3ccc(Br)cc3)c(N)c12`, the Potency is reported as “inactive”.
For `CN(c1ccccc1)S(=O)(=O)c1cccc(NC(=O)Cc2c(F)cccc2Cl)c1`, the Potency was inconclusive: 39.8 µM [quencher, side channel, single point].
`NC(=O)c1ccc([N+](=O)[O-])cc1SCc1ccccc1` was tested, and the Potency was inconclusive: 15.8 µM [quencher, partial curve, poor fit].
For `O=C(N/N=C/c1ccc(Br)cc1)c1ccc(Br)o1`, the Potency was inconclusive: 25.1 µM [quencher, side channel, partial curve, poor fit].
With `O=C(O)c1ccc(/C=N/NC(=O)c2ccc3c(c2)OCCO3)cc1` the Potency was inconclusive: 25.1 µM [quencher, side channel, single point].
In the case of `CC(=O)c1cccc(S(=O)(=O)N2CCC(n3nnc4cc(F)ccc43)CC2)c1`, the Potency is reported as inconclusive: 39.8 µM [quencher, side channel, single point].
With `C=CCn1c(NC(=O)c2ccc(C)cc2)nc2ccccc21` the Potency was inconclusive: 3.98 µM [fluorescent, side channel, single point].
With `CC(C)(C)NC(=O)C(c1cccs1)N(C(=O)C(=O)NC1CCCC1)c1ccccc1F` (stereo not given) the Potency was “inactive”.
With `O=c1[nH]c2ccccc2c(O)c1Cc1ccccc1` the Potency was inconclusive: 14.1 µM [quencher, side channel, partial curve].
With `CC(=O)OCCCNc1cc(Sc2nc3ccccc3s2)c2nonc2c1[N+](=O)[O-]` the Potency was inconclusive: 0.112 µM [quencher, side channel, full curve, poor fit].
`O=c1cc(CN2CCC3(CC2)OCCO3)c2c(ccc3ccccc32)o1` was tested, and the Potency was inconclusive: 22.4 µM [quencher, side channel, single point].
With `COC(=O)c1ccc2nc(NC(=O)C3CCCCC3)sc2c1` the Potency was “inactive”.
For `CSc1cccc(CN2CCN(CCC(C)C)C(CCO)C2)c1` (stereo not given), the Potency was “inactive”.
In the case of `CC1(C)CC2CC(C)(CN2C(=O)c2ccc([N+](=O)[O-])cc2[N+](=O)[O-])C1` (stereo not given), the Potency is reported as inconclusive: 8.91 µM [quencher, partial curve].
With `N#CC1=C(N)NC(SCC(=O)Nc2ccc(Br)cc2)=C(C#N)C12CCCCC2` the Potency was “inactive”.
`CSCCC(NC(=O)OC(C)(C)C)C(=O)Oc1ccc2c(=O)c(-c3ccc4c(c3)OCCO4)coc2c1` (stereo not given) was tested, and the Potency was “inactive”.
With `O=C(O)CC12CC3CC(C1)CC(n1ncc(NCc4ccc5c(c4)OCO5)c(Cl)c1=O)(C3)C2` the Potency was inconclusive: 25.1 µM [quencher, side channel, partial curve].
With `O=C(NCCN1CCOCC1)C(=O)NCC1CCCO1` (stereo not given) the Potency was inconclusive: 8.91 µM [fluorescent, side channel, partial curve].
`O=C1C(NS(=O)(=O)c2ccc(Br)cc2)=C(N2CCCCC2)C(=O)c2ccccc21` was tested, and the Potency was inconclusive: 14.1 µM [quencher, side channel, partial curve].
With `[S-]C(=Nc1ccc(Cl)cc1)N[n+]1ccccc1` the Potency was inconclusive: 100 µM [inhibitor, partial curve, poor fit].
With `Cc1cccc(NC(=O)Nc2ccc(S(N)(=O)=O)cc2)c1` the Potency was “inactive”.
`CCn1c(SCc2nc(-c3cccs3)no2)nnc1-c1c[nH]c2ccccc12` was tested, and the Potency was “inactive”.
`COC(=O)c1oc2ccc(Br)cc2c1NC(=O)c1ccccc1` was tested, and the Potency was “inactive”.
For `CCn1c(CSc2ncn[nH]2)nc2cc(C(=O)O)ccc21`, the Potency was inconclusive: 0.794 µM [fluorescent, side channel, single point].
In the case of `Cc1cc(C)cc(NC(=O)C2CCCN2C(=O)Oc2ccccc2)c1` (stereo not given), the Potency is reported as inconclusive: 12.6 µM [inhibitor, single point].
In the case of `CCc1cc(Br)ccc1N1C(=O)C2CC=CCC2C1=O` (stereo not given), the Potency is reported as inconclusive: 50.1 µM [inhibitor, single point].
`COc1ccc(/C=N/NC(=O)c2ccc(Br)cc2)cc1CN1CCOCC1` was tested, and the Potency was “inactive”.
In the case of `COc1ccc(N2CCN(C(=O)c3cc4cc(Cl)ccc4[nH]3)CC2)cc1`, the Potency is reported as “inactive”.
`O=C(NC1CC1)c1cc(OCC(F)(F)F)ccc1OCC(F)(F)F` was tested, and the Potency was inconclusive: 39.8 µM [quencher, single point].
For `N=C1C(c2ccccc2)=C(O)CN1c1cccc(S(=O)(=O)N2CCCCC2)c1`, the Potency was “inactive”.
With `CC(=O)Nc1cccc(NC(=O)c2ccc(COc3ccccc3)cc2)c1` the Potency was “inactive”.
`O=C(NCc1ccc2c(c1)OCO2)Nc1ccc2nsnc2c1` was tested, and the Potency was inconclusive: 10 µM [quencher, side channel, partial curve].
